The list shows a part of the results. These are noisy estimates, calculated here from bound and input reads.
These sequences were tested against T1, Pho4 (S. cerevisiae) (UniProt P07270) (assay: relative binding free energy (BET-seq); higher = weaker binding). Conditions: reference: library average.
T1 sequence: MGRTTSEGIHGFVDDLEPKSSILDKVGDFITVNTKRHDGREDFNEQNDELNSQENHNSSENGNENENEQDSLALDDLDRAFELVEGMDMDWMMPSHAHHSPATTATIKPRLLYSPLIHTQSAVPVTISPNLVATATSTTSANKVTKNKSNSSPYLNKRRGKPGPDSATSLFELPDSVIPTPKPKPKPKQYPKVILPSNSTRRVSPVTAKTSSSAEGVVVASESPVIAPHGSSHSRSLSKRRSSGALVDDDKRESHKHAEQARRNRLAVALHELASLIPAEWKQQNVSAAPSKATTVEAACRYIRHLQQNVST

Sequence	relative binding free energy [kcal/mol]
GTCATCACGTGTCGGT	0.16
TTAAGCACGTGGTAGC	-0.13
ACGGACACGTGGTGGG	-0.03
GTTTGCACGTGCGCAG	0.03
CTAGTCACGTGATTGT	0.14
TGTAGCACGTGAGTTC	0.12
TTTATCACGTGATGGG	0.33
TTTGTCACGTGTTTTG	0.1
AGTCGCACGTGATGTT	0.21
TGTAACACGTGATTTT	0.23
ACTGTCACGTGGTTGG	0
TTATTCACGTGTGAGT	0.36
TTAAGCACGTGGGTGT	-0.3
ATGGACACGTGGGGTG	-0.05
CATTTCACGTGCGTAT	0.33
CGAAACACGTGTTGGT	0
TGTCGCACGTGAGGAG	0.17
ACGGGCACGTGTGTTT	-0.03
TCGGGCACGTGATTTT	-0.01
GCGAGCACGTGGTTTA	-0.06
GTATTCACGTGGTCTT	0.14
CTTTACACGTGTGGTA	0.02
TGCCGCACGTGTTGTG	0.01

Sequence	relative binding free energy [kcal/mol]
TTGATCACGTGGCGTT	0.04
TACTACACGTGTAGTT	0.09
TGTGTCACGTGGCGTT	0.05
GTGGTCACGTGCGCGG	0.02
TCTTTCACGTGGTGCT	0.19
GGGTACACGTGTTAGT	0.1
TAGGACACGTGGCTAG	0.06
CTTTTCACGTGGGGAG	0.06
TTTAGCACGTGTGTTT	0.06
GGGAACACGTGGGAAG	0.08
GAAAGCACGTGAGTTT	0.32
AAACTCACGTGTTGTG	0.14
TCGTACACGTGGGGTC	-0.06
GCAGGCACGTGCTGTG	-0.09
ATTATCACGTGGCGTT	0.09
AGCGTCACGTGGAAGG	0.29
GGGTACACGTGGTTGC	-0.02
ATCTGCACGTGTGGCG	0
CTGGTCACGTGAGTGT	0.2
GGGTGCACGTGAACGT	0.2
GGGAGCACGTGACGGT	0.11
TTTCTCACGTGCAGTG	0.22
GGGATCACGTGGATAG	0.22

Sequence	relative binding free energy [kcal/mol]
TGTGCCACGTGTGTAG	-0.05
ATGTACACGTGTGGTA	0.17
ATGAGCACGTGAGTAG	0.05
AGGCGCACGTGAATGG	0.12
GTTTTCACGTGATATG	0.28
TAATGCACGTGCGGGT	-0.03
GTAGGCACGTGGGTCC	-0.25
AGAGACACGTGTGGAG	0.11
TAGGTCACGTGTATTT	0.03
ATTCACACGTGTGTTT	0.1
TACTGCACGTGGCTGT	-0.1
AGTTGCACGTGCGATA	0.01
ATGTGCACGTGCACGT	-0.03
GTGTACACGTGTTTGT	0.05
TTTTTCACGTGATGTC	0.29
TTTTACACGTGAATCT	0.38
TTTGCCACGTGATTAT	0.12
GTGTACACGTGTAATT	0.2
ATGGTCACGTGTAGGA	0.14
TAGAGCACGTGTGTTG	-0.01
TATGTCACGTGGAATT	0.13
TGATGCACGTGATCTG	0.02
ATGGTCACGTGAGGCA	0.27

Sequence	relative binding free energy [kcal/mol]
TGGCGCACGTGCTAGT	-0.07
GTTGCCACGTGTGGGA	0
GTCATCACGTGTTTTA	0.11
ATTTTCACGTGGGACG	0.23
GGGGACACGTGGTGCA	0.04
TGGGGCACGTGTTGGT	-0.09
AGATGCACGTGAGGAG	0.15
GAGGCCACGTGAGAGT	0.35
ATTAACACGTGAGTAG	0.14
AGAATCACGTGGTTTT	0.15
CTAATCACGTGGTTTT	0.07
GTCTGCACGTGGGGAT	-0.16
TGTCTCACGTGCAGTG	0.14
TAGCTCACGTGATGTG	0.27
TGGTTCACGTGTTTTA	0.25
GGAGGCACGTGGGGAA	-0.03
AATGTCACGTGGCAGT	0.07
TAAGACACGTGGGATT	-0.09
CTTTACACGTGTTGGG	0.15
TAGTGCACGTGGTGAC	-0.04
AGTGGCACGTGGCGAC	-0.17
TTTGACACGTGTGTAA	0.01
TATATCACGTGTATTA	0.15

Sequence	relative binding free energy [kcal/mol]
TTAGGCACGTGCGGAA	-0.25
AGATTCACGTGTGTCA	0.27
TTGACCACGTGCGTGG	-0.17
ATGCGCACGTGGAAGG	-0.15
GGGCTCACGTGGCGTG	0.09
AGTTACACGTGTTTGT	0.05
CGTGACACGTGTATAG	0.06
CGTAACACGTGTTTGG	0.02
CTTTTCACGTGTGGTG	0.24
GGGTGCACGTGTCTCT	0.02
AGTTTCACGTGGTTTT	0.28
TGTGTCACGTGGTGTC	0
TGAAACACGTGTGGCT	0.04
GTGATCACGTGATTGA	0.18
GGGGTCACGTGGCACG	-0.03
CTATACACGTGTTGGT	0.06
ATTAGCACGTGTCTTG	-0.04
CAGCGCACGTGTGAGG	-0.06
GGCGTCACGTGTGGCT	-0.09
GGGTCCACGTGGGGAA	-0.06
TAGCTCACGTGTGTTT	0.36
CTTATCACGTGTGGCT	0.22
TGATACACGTGTGGCA	0.03

From the BET-seq Pho4 binding data (Le et al. 2018)
